# Laboratory results reported in PubChem BioAssay AID2546 (National Center for Advancing Translational Sciences (NCATS), 2010).
# Hit rate of the full screen: of about 310,000 compounds, about 11,000 (3.5%) were called active. Inconclusive means that the source gave no clear call. Such entries were picked first, then a sample of the others. Calls follow the shape of the dose curve; as a rule, active = well fitted inhibition curve with a large enough effect; inconclusive = small, poorly fitted or top-dose-only effect, or effect the other way; inactive = flat fitted curve, though single readings scatter. No potency is given beside an inconclusive call; the fits are too rough.
# Experiment: VP16 counterscreen qHTS for inhibitors of ROR gamma transcriptional activity;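 also: Gal4-VP16 expression switched on by copper sulfate through the metallothionein promoter; nearly all actives have a fitted effect of over 50% in size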
# Details: Drosophila S2 Gal4-VP16 UAS-luciferase, luminescence, 20 h; activity, negative = inhibition: at 53.6 µM (top of the series)
# % is scaled to controls: 0 for no effect and ±100 for the full control effect; potency is read from the fitted curve at half-maximal effect; tags tell the direction and shape of the fitted curve.
SMILES,"activity, negative = inhibition",Potency
O=C(CCc1ccc(O)c(O)c1)NNC(=S)NCCc1ccccc1,inactive: -5.32%,
Cc1cc(-c2sccc2Br)nc(-n2cccc2)n1,,"inconclusive [activator, single point]"
c1ccc(CCNc2c3c(nc4ncnn24)CCC3)cc1,,"inconclusive [inhibitor, single point]"
CCOc1cc(/C=C\[N+](=O)[O-])ccc1OCC(=O)Nc1ccccc1C,,active: 1.78 µM
Cc1ccsc1/C=N/NC(=O)c1nnn(-c2nonc2N)c1-c1ccccc1,,active: 20 µM
Cc1ccc(C2=NC3(CCCCCC3)NC2=S)cc1,,active: 2.24 µM
CC(C)CN(CC(C)C)c1ccc(/C=N/n2cnnc2)cc1[N+](=O)[O-],,"inconclusive [inhibitor, single point]"
Cc1nc2ccc(NS(=O)(=O)c3ccc(C)c(C)c3)cc2s1,,"inconclusive [inhibitor, single point]"
COc1ccc(C(=O)Nc2cc(C(=O)c3ccccc3)c(C)oc2=O)cc1,,active: 10 µM
CCn1c2ccccc2c2nnc(SCCCn3c(=O)[nH]c4ccccc43)nc21,,"inconclusive [inhibitor, partial curve]"
O=C(O)c1ccc(-c2nc(-c3ccccc3)c(-c3ccccc3)[nH]2)cc1,inactive: -11.5%,
O=C(NC(=S)N1CCN(c2ccc(C(F)(F)F)cc2[N+](=O)[O-])CC1)c1cccs1,,"inconclusive [inhibitor, full curve, poor fit]"
COc1ccc(NC(=O)CCNS(=O)(=O)c2ccc3c(c2)c(=O)n(C)c(=O)n3C)cc1,,"inconclusive [inhibitor, partial curve]"
COc1ccc(C2=Nn3c(nnc3-c3cccc(OC)c3OC)SC2)c(OC)c1,,active: 17.8 µM
Cc1ccc(C(=O)/C=C/NNC(=O)c2ccccc2O)cc1,,"inconclusive [inhibitor, single point]"
COc1cc(C(=O)O[C@H]2CC(C)=CC[C@@]3(C)CC[C@@](O)(C(C)C)[C@H]23)ccc1O,,"inconclusive [inhibitor, single point]"
O=C1CCC(C(=O)OC(C(=O)c2c[nH]c3ccccc23)c2ccccc2)=NN1 (stereo unspecified),,active: 7.08 µM
Cc1cccc(C(=O)N/N=C/c2ccc[nH]2)c1,,active: 12.6 µM
COc1cc([N+](=O)[O-])ccc1NC(=O)CSc1nc2ccccc2n1-c1ccccc1,inactive: -2.83%,
CO/N=C(/CS(=O)Cc1ccccc1Cl)c1ccc(Cl)cc1Cl (stereo unspecified),,"inconclusive [inhibitor, single point]"
CCOC(=O)C1=NN(N=O)C2(CC(=O)N(c3cc(C)cc(C)c3)C2=O)C1 (stereo unspecified),,"inconclusive [inhibitor, single point]"
Oc1cccc2ccc(/C=C/c3ccccc3Br)nc12,,active: 3.16 µM
COCCN(Cc1cc2cc(C)ccc2n2nnnc12)C(=S)Nc1cccc(C)c1,inactive: -10.3%,
CCCCN1C(=O)c2ccc(C(=O)Nc3ccc(S(=O)(=O)N(C)C)cc3)cc2C1=O,,"inconclusive [inhibitor, single point]"
Cc1ccccc1Nc1nnc(C)c(=O)n1N,,"inconclusive [inhibitor, single point]"
C[C@]1(C(=O)NCCCNc2ncc(C(F)(F)F)cc2Cl)C=C[C@@H](Cc2ccccc2)N1C(=O)c1ccccc1,,"inconclusive [inhibitor, single point]"

SMILES,"activity, negative = inhibition",Potency
COC(=O)c1ccc(CSc2ncnc3sc(C)c(C)c23)o1,,"inconclusive [inhibitor, single point]"
CCCc1ccc(OCc2ccc(C(=O)O)o2)c(OC)c1,,"inconclusive [inhibitor, partial curve]"
CCC(C)c1ccc(NC(=S)NCCn2cc(Cl)cn2)cc1 (stereo unspecified),,active: 10 µM
C=CCn1cccc(C(=O)Nc2ccc(Cl)cc2)c1=O,inactive: 4.17%,
Cc1nn(-c2ccc(NC(=O)c3ccncc3)cc2)c(C)c1Cl,,active: 7.94 µM
Nc1c(N2CCOCC2)cc(Cl)c2nonc12,inactive: -8.83%,
CCc1ccc(/C=N/NC(=O)c2cc(-c3ccccc3OC)nc3ccccc23)s1,,active: 4.47 µM
Cc1cccc(C)c1NC(=O)c1c(-c2ccccc2)noc1C,inactive: 10%,
Cc1ccc(CN2CCc3c(OCc4ccc(F)cc4)cccc3C2=O)cc1,,"inconclusive [inhibitor, single point]"
CC(Oc1ccc2c3c(c(=O)oc2c1)CCCC3)C(=O)NCc1cccnc1 (stereo unspecified),,"inconclusive [activator, single point]"
CN(C)c1ncc2nc(CCc3ccccc3)c(=O)n(CCC#N)c2n1,inactive: -3.1%,
CNC(=S)Nc1cc(Cl)ccc1Oc1ccccc1,,"inconclusive [inhibitor, single point]"
CCC(C)C(=O)Nc1nc(C)c(-c2csc(Nc3ccc(Cl)cc3)n2)s1 (stereo unspecified),,active: 10 µM
CCCN1CCc2c(sc(NC(=O)c3ccc(S(=O)(=O)N(C)c4ccccc4)cc3)c2C(N)=O)C1,inactive: -27.7%,
O=C(/C=C/c1ccc([N+](=O)[O-])cc1)NCc1ccco1,,"inconclusive [activator, partial curve]"
COc1ccc(NS(=O)(=O)c2ccc(NC(=S)NC(=O)c3ccc(Br)cc3)cc2)nn1,,"inconclusive [inhibitor, single point]"
COc1cccc(Cl)c1NC(=O)N1CCN(c2cc(C)nc3ccccc23)CC1,inactive: 1.56%,
O=C1NC(c2ccccc2Cl)=N/C1=C/c1ccco1,,"inconclusive [activator, full curve]"
CCOc1ccccc1N1CCN(C(=O)c2cn(CC3CCCCC3)nn2)CC1,,"inconclusive [activator, partial curve]"
CN(C)C1CCN(C(=O)c2cccc(OC3CCN(S(=O)(=O)N(C)C)CC3)c2)C1 (stereo unspecified),inactive: -11.2%,
CCNc1nc(OC)nc(N2CCC(Cc3ccccc3)CC2)n1,,"inconclusive [inhibitor, single point]"
N#C/C(=C\c1ccc(-c2ccccc2[N+](=O)[O-])o1)C(=O)N1CCOCC1,,"inconclusive [activator, single point]"
Cc1cc2cc(CNC(=O)c3cccs3)ccc2[nH]1,,"inconclusive [inhibitor, partial curve, poor fit]"
COc1cnc(-c2ccccn2)nc1Oc1cccc(C(F)(F)F)c1,,active: 11.2 µM
CCCC1=NN2C(=N)/C(=C\c3cc(C)n(-c4cccc(C)c4)c3C)C(=O)N=C2S1,,"inconclusive [inhibitor, single point]"
CCC(=O)c1ccc(OCC(O)CN2CCN(c3cccc(C(F)(F)F)c3)CC2)cc1 (stereo unspecified),,"inconclusive [inhibitor, partial curve, poor fit]"

SMILES,"activity, negative = inhibition",Potency
CC1(C)Cc2c(sc3nnn(Cc4ccc(Cl)cc4)c(=O)c23)CO1,,"inconclusive [activator, single point]"
COc1cc(OC)cc(-c2nnc(NC(=O)Cc3ccc(F)cc3)o2)c1,,active: 0.631 µM
O=C(CN1c2ccccc2Sc2ccccc21)N/N=C/c1ccccc1,inactive: -0.264%,
C=CCN(CC=C)c1ccc(N2C(=O)C3CCCCC3C2=O)cc1[N+](=O)[O-] (stereo unspecified),,active: 22.4 µM
CCSc1nsc(NC(=O)Nc2cccc(OC)c2)n1,inactive: -13.8%,
COc1ccc([N+](=O)[O-])cc1NC(=O)CSc1ccc2ccccc2c1,,"inconclusive [inhibitor, single point]"
O=C(Nc1ccc(-c2nc3ccccc3o2)cc1)c1ccc(N2C(=O)C3C4C=CC(C4)C3C2=O)cc1 (stereo unspecified),inactive: 1.75%,
Cc1ccc2[nH]c(=S)cc(C)c2c1,,"inconclusive [inhibitor, single point]"
CC(=O)C1=C(c2ccccc2)NC(=S)NC1c1cc(Cl)c(OC(C)C)c(Cl)c1 (stereo unspecified),,active: 5.01 µM
C/C(=N\NC(=S)Nc1ccccc1C)C1Cc2ccccc2C(=O)O1 (stereo unspecified),,"inconclusive [inhibitor, single point]"
CCOC(=O)c1c(NC(=O)CSc2nnnn2C)sc(C)c1-c1ccc(C)cc1,inactive: -3.5%,
COc1cccc(C(=O)NCCC2=CCCCC2)c1,,"inconclusive [inhibitor, partial curve]"
Cc1nc(Nc2ccc(S(N)(=O)=O)cc2)oc1C,inactive: -9.19%,
CCCCNC(=S)Nc1ccc(Oc2ccccc2)cc1,,active: 5.62 µM
O=C(CCn1c(=O)c2ccccc2n(CC(=O)NCCC2=CCCCC2)c1=O)NCc1ccco1,inactive: 13.1%,
CC(=O)c1cccc(NC(=O)CCCNC(=O)c2ccc(Cl)cc2)c1,inactive: -15.7%,
CCN(c1ccccc1)S(=O)(=O)c1cc(C(=O)Oc2ccc3c(C)cc(=O)oc3c2)ccc1C,inactive: 25.5%,
O=C(COc1ccccc1)Nc1cccc(-c2nnc(-c3ccccc3)o2)c1,,"inconclusive [inhibitor, single point]"
CN1CC=C2C(C#N)=C(N)C(C#N)(C#N)C(c3cccc(Cl)c3Cl)C2C1 (stereo unspecified),inactive: 14.3%,
O=C(NC(=S)N1CCN(c2ccccn2)CC1)c1ccccc1,,active: 4.47 µM
COc1cc2c3c(c1)C(C)=CC(C)(C)N3C(=O)C2=O,inactive: -14.9%,
Cc1cc(=O)[nH]c(SCCOc2ccc(OC(C)C)cc2)n1,,"inconclusive [inhibitor, full curve, poor fit]"
CCOc1ccccc1NC(=O)C(=O)/C=C(\O)c1cc(OC)ccc1OC,,"inconclusive [inhibitor, single point]"
Cc1cc(C)n2c(SCC(=O)Nc3ncc(C(F)(F)F)cc3Cl)nnc2n1,,"inconclusive [inhibitor, single point]"
